The source gives no read counts; variants with many changes may rest on few reads.

B1: LINE1-mini (parent)
chain: GGCAGAGCUCAACACAGCGUGGCAAAGUGGCUGUGGCUAGACUGCC

Variants of B1 are the subject of this data set. Nature of the data set: self-cleavage, relative activity (ratio to wild type); higher = more cleavage; in vitro, sequencing; the parent is a self-cleaving ribozyme.
With G17U G21U G29U C42G, the self-cleavage was 0.02.

In the case of G17U C18U A24C C31U C37G, the self-cleavage is 0.04.

Consider G17U C23A G27U G30U U32C G33A, for which the self-cleavage came out at 0.07.

On to G17C U28C A41C U43A, for which the self-cleavage turned out to be 0.

G17C U28G G36U: the self-cleavage stood at 0.03.

Turning to G17U C18G G19A, the self-cleavage is 0.02.

As for C18A G33U G36U, the self-cleavage was determined as 0.03.

In the case of C18A G33U G36C, the self-cleavage was 0.01.

In the case of G17C U28G C31U, the self-cleavage is 0.

For the variant G17C C42A U43G, the self-cleavage stood at 0.02.

On to G17U A24U C45G, for which the self-cleavage was 0.12.

G17C G35C A39G C42A G44U: the self-cleavage was determined as 0.

On to G17C U20A A24U C31G, for which the self-cleavage came out at 0.15.

In the case of C18A U32C A39G, the self-cleavage worked out at 0.05.

Turning to C18A G19U G35A C42A, the self-cleavage was found to be 0.02.

In the case of G17U C18G G36A C45G, the self-cleavage came out at 0.05.

With C18A G19C C46U, the self-cleavage came to 0.37.

Consider G17U G36U G40U, for which the self-cleavage is 0.03.

Turning to G17C G21A C45U, the self-cleavage was determined as 0.92.

Regarding C18A A24U C46U, the self-cleavage is 0.15.

In the case of C18A C37G A39G, the self-cleavage amounted to 0.15.

G17C G19A G33U: the self-cleavage was 0.04.

Regarding G17U U38A C42G U43G, the self-cleavage came out at 0.01.

On to G17C G40U C42A C45U, for which the self-cleavage was 0.09.

Take C18A C23A U32C U38G C42U: the self-cleavage amounted to 0.

For G17U G30U C46U, the self-cleavage stood at 0.02.

Regarding G17U G21A A41U, the self-cleavage was determined as 0.3.

As to G17C G36C C42A, the self-cleavage is 0.02.

G17C U20C G33A: the self-cleavage came out at 0.02.

As to G17C C37A U38A, the self-cleavage amounted to 0.06.

Regarding C18A G21C C45A, the self-cleavage came out at 0.43.

For the variant G17U C23A G33C A41G, the self-cleavage is 0.02.

For G17C C23A A24G C37U, the self-cleavage came to 0.14.

Turning to C18A U28C G36A C46A, the self-cleavage amounted to 0.05.

For G17C G22A G36A G40A, the self-cleavage worked out at 0.15.

On to G17C G19C U38C, for which the self-cleavage stood at 0.03.

With G17C U20C C31A, the self-cleavage was found to be 0.48.

As for G17C U20C C31G, the self-cleavage came to 0.1.

Turning to G17C C23U G27C G33C G40A, the self-cleavage worked out at 0.05.

Regarding C18A G22U A26G C45A, the self-cleavage was 0.03.

Consider C18A U32A G33U A39G A41U, for which the self-cleavage was determined as 0.02.

For C18A G21U G35C, the self-cleavage is 0.01.

Take G17U U20G A26U G30C: the self-cleavage is 0.38.

In the case of G17U G30U C37A, the self-cleavage was 0.19.

On to C18A A26C C42U, for which the self-cleavage stood at 0.1.

For C18A A26G C31A, the self-cleavage was found to be 0.05.

As to C18A G27U C46U, the self-cleavage worked out at 0.55.

Regarding G17C G27U G40U C42G C46U, the self-cleavage turned out to be 0.06.

With G17U G36C U43G, the self-cleavage amounted to 0.

With C18A G30U C45A, the self-cleavage stood at 0.21.

As to C18A A26C U34G C37U A41G, the self-cleavage turned out to be 0.09.

Consider G17U G35U U38A A41U, for which the self-cleavage came out at 0.01.

Take G17U G33A U34A: the self-cleavage stood at 0.03.

Regarding C18A U28G G30A G33C, the self-cleavage worked out at 0.04.

Take C18A A25C G27U G30U: the self-cleavage was found to be 1.65.

In the case of G17U G19C G27U, the self-cleavage was found to be 0.52.

For the variant C18A G19C G21C C23G U28A C45U, the self-cleavage turned out to be 1.64.

In the case of G17C G33U C37G, the self-cleavage was 0.02.

Take C18A G22U A41C: the self-cleavage was determined as 0.01.

Turning to G17C G30A G33A C37U, the self-cleavage was 0.02.

Turning to G17C U20G C45A, the self-cleavage was determined as 0.01.

For the variant G17C G33A G36U G40U, the self-cleavage came out at 0.06.

For the variant C18A C31U C45U, the self-cleavage came to 0.04.

G17U G27U U34C C37U: the self-cleavage amounted to 0.12.

With C18A G21U G27C C31U, the self-cleavage was determined as 0.03.

With G17C U34G G36C C37G A39U, the self-cleavage came to 0.01.

For the variant G17U U20A U34C G40U, the self-cleavage was 0.01.

Consider C18A C23U A25G G29C G36U C42A, for which the self-cleavage was found to be 0.02.

As for C18A U28A U34A A41C, the self-cleavage was 0.

As for G17U U20G G40A, the self-cleavage turned out to be 0.07.

As for C18A G19C U32G, the self-cleavage amounted to 0.13.

For G17C G21U U43A, the self-cleavage was 0.05.

As to G17U C23U G36U A39G, the self-cleavage came to 0.02.

C18A G33U C37A: the self-cleavage was 0.07.

Regarding G17C G21A U32G, the self-cleavage is 0.13.

Consider C18A G27C C45U, for which the self-cleavage was 0.47.

In the case of G17U C18A G44U, the self-cleavage stood at 0.04.

Consider G17U G40U G44C, for which the self-cleavage amounted to 0.03.

As for C18A G30A G40C, the self-cleavage is 0.03.

For the variant C18A G27C G35U G44C, the self-cleavage came out at 0.01.

For G17U G36A U38C, the self-cleavage was 0.02.

In the case of G17U G21C G27U C45A, the self-cleavage came to 0.03.

As to G17C C23G U28A U38G C46U, the self-cleavage stood at 0.01.

In the case of C18A G19U G21C G29A G44C, the self-cleavage is 1.11.

C18A G19C G35A G40U: the self-cleavage turned out to be 0.02.

As to C18A G22A C31U, the self-cleavage was determined as 0.02.

On to C18A C31A C46U, for which the self-cleavage was determined as 0.06.

For G17C C37G U38C, the self-cleavage is 0.15.

Regarding C18A G40A C46G, the self-cleavage turned out to be 0.1.

With C18A A25C A26U, the self-cleavage was 0.04.

With G17C G30U C31A G33A, the self-cleavage amounted to 0.01.

G17C C37A G44A C45U: the self-cleavage was 0.

Consider G17U U38G G40A, for which the self-cleavage is 0.

As to C18A A25U U28G, the self-cleavage was 0.17.

G17U A25U G27C C37U: the self-cleavage came out at 0.05.

As for G17U G27A G40U, the self-cleavage is 0.03.

For the variant G17U C23A G29U, the self-cleavage was found to be 0.13.

As to C18A C37U G44U, the self-cleavage was 0.05.

Turning to G17U C23G C37U, the self-cleavage is 0.11.

Regarding C18A G21A G22C C23G, the self-cleavage amounted to 0.19.

Turning to C18A G19A A25U, the self-cleavage amounted to 1.18.

In the case of G17C G19C G33A A41G, the self-cleavage was 0.07.

On to C18A G21U U34A, for which the self-cleavage stood at 0.04.

As for G17C C18U G29A G30U C42A, the self-cleavage turned out to be 0.08.

Take C18A G21U U28G A39G: the self-cleavage was found to be 0.02.

With C18A G36A C46A, the self-cleavage stood at 0.05.

With G17U G22A G30U, the self-cleavage was found to be 0.14.

In the case of G17U U38G C45A C46U, the self-cleavage stood at 0.05.

Regarding G17U G35A C37A G44U, the self-cleavage stood at 0.04.

On to G17U U32A G33C G36C, for which the self-cleavage was 0.02.

With G17C C23A G44C, the self-cleavage is 0.11.

For C18A G21U A26C C31G G36C, the self-cleavage is 0.21.

On to G17C U32G C37G, for which the self-cleavage worked out at 0.02.

For the variant G17U A24C U28G C42U, the self-cleavage stood at 0.03.

For the variant G17C G29U U32C, the self-cleavage is 0.04.

In the case of G17U C31U C37A, the self-cleavage amounted to 0.

As for C18A G36C C37G A41C, the self-cleavage is 0.01.

Consider C18A G21U U28C, for which the self-cleavage worked out at 0.13.

For G17U G36A U43A, the self-cleavage is 0.17.

In the case of G17U U38A C46G, the self-cleavage came to 0.07.

Take G17U U20A C31U G36C: the self-cleavage turned out to be 0.02.

Take G17C G22C U34G C37A A39G: the self-cleavage was 0.03.

As for G17U C37U U38G, the self-cleavage turned out to be 0.03.

On to C18A G33A A39U, for which the self-cleavage turned out to be 0.02.

As to G17U G29U G30U A41G, the self-cleavage stood at 0.06.

On to G17C C37U U38G, for which the self-cleavage worked out at 0.01.

In the case of G17C G21C C23G A41U, the self-cleavage came to 0.32.

For the variant C18A G27U A39G, the self-cleavage amounted to 0.17.

For G17U G22A G29U, the self-cleavage came out at 0.61.

Regarding G17C G19C A26C, the self-cleavage was determined as 0.47.

Turning to C18A C23G A26G A39U, the self-cleavage turned out to be 0.15.

Turning to G17U G29C G35C C42A, the self-cleavage came out at 0.02.

Consider G17U G40A A41C C42A C45G, for which the self-cleavage worked out at 0.01.

For the variant G17C G22U G30A, the self-cleavage is 0.5.

On to C18A G22C G30A, for which the self-cleavage was found to be 0.91.

C18A G22C U28A G33C: the self-cleavage was determined as 0.03.

As to G17C U20G A24U A41C, the self-cleavage was 0.03.

With G17U G21U A24C G29C, the self-cleavage amounted to 1.65.

For the variant C18A G30A A39G, the self-cleavage stood at 0.02.

Take G17U C18A A25U G27A C42A G44A: the self-cleavage stood at 0.21.

As for G17C G27U G29A C42U C46A, the self-cleavage came to 0.02.

For the variant G17C G30U U43C, the self-cleavage was found to be 0.02.

Take G17U G21U G27U: the self-cleavage was found to be 0.92.

With C18A G27U G33C, the self-cleavage was 0.02.

For the variant G17U A24G G29A C46G, the self-cleavage was found to be 0.11.

In the case of G17U C23G G29A U34G C37U, the self-cleavage was found to be 0.02.

As for G17C U20G G29C G33A C45A, the self-cleavage was 0.

With C18A G27C U32G, the self-cleavage is 0.23.

As to G17C G19A G30C, the self-cleavage amounted to 0.11.

Consider C18A G21C G36A, for which the self-cleavage was 0.13.

As to G17U C18G A25G C45A, the self-cleavage stood at 0.1.

Turning to C18A G40C C46U, the self-cleavage was 0.03.

As for G17C C23A A25U G30U G33C A39U, the self-cleavage came out at 0.02.

As for C18A G21A G27U C37A, the self-cleavage came to 0.1.

With C18A C42U U43A, the self-cleavage is 0.11.

For C18A G35A G36A G40C C42G, the self-cleavage stood at 0.01.

On to G17C U28C A39C, for which the self-cleavage stood at 0.03.

In the case of G17U C23A G36C, the self-cleavage came out at 0.01.

For G17U G19U U43C C46A, the self-cleavage was 0.03.

Turning to G17U G27A U38G G40U, the self-cleavage came to 0.05.

As to C18A U28G C46U, the self-cleavage was determined as 0.1.

Regarding C18A G22A U43A, the self-cleavage was 0.04.

In the case of G17U G19C G22A C45A, the self-cleavage was 1.11.

Take G17C C18U A41C: the self-cleavage was 0.03.

In the case of G17U G33A G35C G40U G44A, the self-cleavage is 0.02.

Regarding G17U C18A G19C G27U U43G, the self-cleavage is 0.17.

Take C18A G35C G36U: the self-cleavage amounted to 0.03.

The values above are taken from the RNAGym collection of RNA variant scans (doi:10.7554/elife.90254).
